The text below walks through data of PubChem BioAssay AID488969 (Vanderbilt High Throughput Screening Facility, 2010).

The full ranking holds about 110,000 compounds; the median of “z-score” is about -0.1, and the highest 2% start at about 2. The list shows a part of the results. The source made the active and inactive calls.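 The calls were made as follows: active = z-score in the third read window above 3 or below -3; inactive = the rest.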

This test has as its target Metabotropic glutamate receptor 8 (Rattus norvegicus) (UniProt P70579). Description: rat mGluR8 modulators via GIRK flux, primary screen, cell-based, thallium flux, HTS (AID 488969). To be noted: HEK293 rat mGluR8, GIRK (G protein-gated inwardly rectifying potassium channel) thallium flux, FluoZin2; at 10 µM; stronger effect = higher value; submaximal glutamate (EC20) added with thallium.
Chain of UniProt P70579 (P70579 whole entry, looked up): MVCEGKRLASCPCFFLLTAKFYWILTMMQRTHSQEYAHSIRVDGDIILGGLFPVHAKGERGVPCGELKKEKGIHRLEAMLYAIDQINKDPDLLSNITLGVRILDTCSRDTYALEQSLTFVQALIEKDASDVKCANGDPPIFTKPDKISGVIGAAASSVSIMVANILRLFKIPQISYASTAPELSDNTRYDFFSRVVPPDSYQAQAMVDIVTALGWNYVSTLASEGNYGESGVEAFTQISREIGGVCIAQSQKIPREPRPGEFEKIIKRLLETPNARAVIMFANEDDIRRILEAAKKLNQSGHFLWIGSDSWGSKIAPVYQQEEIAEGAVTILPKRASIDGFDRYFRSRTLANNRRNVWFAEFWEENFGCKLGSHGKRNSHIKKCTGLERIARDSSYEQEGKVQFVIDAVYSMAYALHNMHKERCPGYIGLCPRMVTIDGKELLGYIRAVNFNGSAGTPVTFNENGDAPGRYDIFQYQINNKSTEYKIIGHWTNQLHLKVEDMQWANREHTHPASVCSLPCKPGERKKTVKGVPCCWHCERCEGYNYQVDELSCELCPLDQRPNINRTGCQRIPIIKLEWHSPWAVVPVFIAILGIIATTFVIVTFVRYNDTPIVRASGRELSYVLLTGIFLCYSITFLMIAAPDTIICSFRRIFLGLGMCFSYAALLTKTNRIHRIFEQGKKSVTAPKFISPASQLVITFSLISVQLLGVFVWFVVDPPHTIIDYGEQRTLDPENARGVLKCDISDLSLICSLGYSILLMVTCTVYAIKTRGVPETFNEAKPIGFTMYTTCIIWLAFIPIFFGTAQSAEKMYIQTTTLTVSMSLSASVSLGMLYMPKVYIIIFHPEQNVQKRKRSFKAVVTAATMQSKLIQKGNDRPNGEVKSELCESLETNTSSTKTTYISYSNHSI
Molecule `COC(=O)c1ccc(CC(=O)c2c(C)cc(O)cc2O)o1` came in with a z-score of 0.162.
As for `Cc1cc(C)cc(C(=O)N(NC(=O)Nc2ccc(Cl)cc2)C(C)(C)C)c1`, the figure is -0.37.
In the case of `CSc1ccccc1C(=O)NC1CCCCCC1` it was -0.167; in that of `Cc1cccc2sc(NC(=O)C3c4ccccc4Oc4ccccc43)nc12`, 0.152.
In the case of `Cc1ccccc1CSCCNS(C)(=O)=O`, the z-score was -0.0619.
As for `Cc1ccc(NC(=O)CN2C(=O)S/C(=C\c3ccc(-c4cccc(C(=O)O)c4C)o3)C2=O)cc1`, the figure is -0.792; as for `O=C1NC2(CCCCCC2)N=C1c1ccc(F)cc1`, -0.0831.
For the molecule `COc1ccc(-c2ccc(OC)cc2)cc1`, the z-score was 0.26.
`O=C(N/N=C/c1sc(=O)n(-c2ccccc2)c1Cl)c1ccccc1` gave a z-score of 0.378.
In the case of `O=C(NCCCN1CCOCC1)c1cc2cc(Cl)cc(Cl)c2oc1=O` it was 0.221.
In the case of `CCn1c(CC(=O)Nc2ccc(C)c(Cl)c2)nnc1SCCOc1ccc(OC)cc1` it was -0.101; in that of `Nc1nonc1-n1nnc(C(=O)c2ccccc2)c1-c1ccccc1`, -0.175.
As for `CCCCCC1CC(CC(=O)Nc2nncs2)C(=O)O1` (stereo not drawn), the figure is 0.0374; as for `Cc1ccc2cc(CN(Cc3ccco3)S(=O)(=O)c3c(C)ccc4nsnc34)c(=O)[nH]c2c1`, -0.0836.
`CCOC(=O)N1CCN(Cc2nc(N)nc(Nc3ccc(OC)cc3)n2)CC1`: the z-score was 0.119.
As for `C/C(=N\NC(=O)CSCc1ccc([N+](=O)[O-])cc1)c1ccccc1O`, the figure is 0.0621; as for `Cc1ccc(/C=C2\Sc3ccccc3C2=O)s1`, -0.127; as for `Cc1cccc(Cc2c(C)nc3nc(SCC(=O)NCc4ccco4)nn3c2C)c1`, -0.909.
As for `Cc1ccc(NCCC(=O)c2ccc(Cl)cc2)cc1C`, the figure is -0.234; as for `Cc1cc(NC(=O)CN2CCC(O)(c3cccc(F)c3)CC2)no1`, -0.799.
As for `O=C(NCCc1ccccc1)C(=O)NCC1CCCO1` (stereo not drawn), the figure is 0.353; as for `CNC(=O)CN(c1ccc(F)cc1)S(=O)(=O)c1cc(C)ccc1OC`, -0.321.
On to `O=C(c1cccc(C(F)(F)F)c1)N1CCN(c2cc(=O)[nH]nc2-c2ccccc2)CC1`, for which the z-score was -0.449.
`CN(C)S(=O)(=O)c1ccc2nc(NC(=O)c3cccs3)sc2c1` yielded a z-score of -0.127.
In the case of `CCCNS(=O)(=O)c1ccc(C(=O)NCC2CCCO2)cc1` (stereo not drawn), the z-score is -0.395.
In the case of `FC(F)(F)c1cc(-c2ccccc2)nc(NCc2cccnc2)n1` it was -0.506; in that of `NC(=O)CN1N=C(c2cc(Cl)sc2Cl)CSC1=O`, 0.181; in that of `O=C(COC(=O)c1cccc(C(=O)OCC(=O)c2ccc(Br)cc2)n1)c1ccc(Br)cc1`, -0.199.
In the case of `Cn1c(=O)c2c(ncn2Cc2ccc(Cl)c(Cl)c2)n(C)c1=O` it was 1.2; in that of `Cc1cc(C)c2c(n1)sc1c(N3CCOCC3)ncnc12`, -0.159; in that of `CCOC(=O)CN(Cc1sccc1C)C(=O)Nc1cccc(OC)c1`, -0.0998.
In the case of `Cc1cs/c(=N/C(=S)Nc2ccccc2)n1C` it was 0.0604.
`Cc1ccccc1Oc1cc(NC(=O)CCCn2nc(C)c([N+](=O)[O-])c2C)cc([N+](=O)[O-])c1` showed a z-score of -0.437.
In the case of `CCc1ccc(CC)c(S(=O)(=O)Nc2ccc(C(=O)O)c(O)c2)c1` it was 0.159.
In the case of `CSCCCNC(=S)N1CCN(S(=O)(=O)c2cccc(C(F)(F)F)c2)CC1`, the z-score was -0.0575.
`COc1ccc2c(c1)CCc1c(C(=O)N3CCc4ccccc4C3)noc1-2` displayed a z-score of -1.69.
As for `CCC(=O)c1ccc(OCC(=O)O)cc1`, the figure is 0.544; as for `O=C(NCCO)C(=O)NCC1OCCCN1S(=O)(=O)c1cccs1` (stereo not drawn), 0.171; as for `CCOc1ccc(NS(=O)(=O)c2ccc3[nH]cc(C(=O)NCC4CCCO4)c(=O)c3c2)cc1` (stereo not drawn), 0.22.
In the case of `CCCCc1ccc(NC=C2C(=O)OC3(CCCCC3)OC2=O)cc1` it was 0.169; in that of `O=C(Oc1ccc(Br)cc1C(=S)N1CCCC1)c1ccccc1Cl`, -0.0754.
In the case of `COc1ccc(OC)c(NC(=O)CSc2nnc(C)n2Cc2ccccc2)c1` it was -0.0689.
For the molecule `Cc1ccc(C(=O)c2ccc(N3CCOCC3)c(F)c2)cc1`, the z-score worked out at 1.22.
In the case of `CCN(c1ccc2c(c1)OCO2)S(=O)(=O)c1cc(Br)cc2c1N(C(C)=O)CC2` it was -0.362.
In the case of `O=C1NC2(CCCCC2)C(=O)N1Cc1ccc([N+](=O)[O-])cc1` it was -0.131; in that of `COC(=O)Cn1c(=NC(=O)c2ccc(Cl)s2)sc2cc(C)ccc21`, 0.116.
In the case of `Cc1occc1C(=O)n1nnc2ccccc21` it was -0.524; in that of `O=C(NCCC1=CCCCC1)C(=O)NCC(c1ccco1)N1CCN(c2ccccc2)CC1` (stereo not drawn), -0.375; in that of `Cc1ccc(/C=N/N2C(=O)c3ccccc3NC2c2ccc(C)cc2)cc1` (stereo not drawn), -0.203.
Regarding `CCOC(=O)c1c(NC(=O)C(=O)N/N=C/c2ccc(O)c(OC)c2)sc2c1CCCCC2`, the z-score was -0.156.
In the case of `COc1ccc(-n2c(C)c(C(C)=O)c(C(C)=O)c2C)cc1` it was 0.311.
In the case of `OC1CCCN(Cc2c3ccccc3cc3ccccc23)C1` (stereo not drawn) it was 1.32; in that of `O=C(CCc1nc2ccccc2[nH]c1=O)OCC(=O)N1CCc2ccccc21`, -0.85; in that of `COc1ccc(-c2nn(-c3ccccc3)cc2/C=N/N2C(=O)CSC2=S)cc1`, -0.461.
With `O=C(O)CC(CC(=O)Nc1nncs1)c1ccccc1` (stereo not drawn), the z-score was -0.273.
`O=C(COc1ccc2ccccc2c1)Nc1cccc2cccnc12` registered a z-score of -0.233.
In the case of `O=S(=O)(Nc1nc2ccccc2s1)c1ccc(Cl)s1` it was -0.467.
Take `CCCCCCc1cc2cc(C(=O)NC)c(=N)oc2cc1O`: the z-score is active: 11.6.
Consider `N=c1n(CCOc2ccccc2)c2ccccc2n1CCN1CCOCC1`, for which the z-score worked out at 0.873.
As for `CCCCNC(=O)CS(=O)Cc1nc(-c2cccs2)oc1C` (stereo not drawn), the figure is 0.176.
`CCOC(=O)N=S(=O)(Oc1ccc([N+](=O)[O-])cc1)c1ccccc1` (stereo not drawn) yielded a z-score of -0.891.
In the case of `COc1cccc(N2C(=O)C(c3ccccc3)=C(c3nc4ccccc4s3)C2NC(C)=O)c1` (stereo not drawn) it was -0.254; in that of `CCN(CC)S(=O)(=O)c1ccc2oc(SCC(=O)NCc3ccccc3)nc2c1`, 0.0882.
With `CN1/C(=C\C(=O)c2cccnc2)C(C)(C)c2ccccc21`, the z-score was -0.282.
As for `CC1C2C(C)N(C)C(=O)N(C)C2N(C)C(=O)N1C` (stereo not drawn), the figure is 0.288.
In turn, `CCNC(=O)C(=O)NCCc1ccc(Cl)cc1` returned a z-score of -0.338.
In the case of `CC(NC(=O)Cc1cccs1)c1ccncc1` (stereo not drawn) it was -0.357; in that of `Cc1nnc2n1N=CC=C(C(C)(C)C)S2`, 0.419; in that of `COc1ccc(NC(=O)N(Cc2cccnc2)Cc2ccccc2Cl)c(OC)c1`, -0.361.
In the case of `COc1ccc(C/C(=N\O)c2ccc(OC)cc2)cc1`, the z-score is -0.363.
As for `COC(=O)c1c(NC(=O)COC(=O)[C@@H](NS(=O)(=O)c2ccc(C)cc2)C(C)C)sc2c1CCC2`, the figure is 2.02; as for `CC(C)(C)C(=O)Nc1nnc(-c2ccncc2)o1`, 0.403; as for `O=c1c2c3c(sc2ncn1/N=C/c1ccccc1)CCCC3`, 0.196.
`CCC(CC)C(=O)Nc1ccc(Nc2ccccc2)cc1` gave a z-score of -0.165.
In turn, `O=C1CC(SCc2nc3ccccc3[nH]2)C(=O)N1c1cccc(Cl)c1` (stereo not drawn) had a z-score of -0.364.
Take `COc1ccccc1S(=O)Cc1ccc(C(=O)NCc2ccccc2Cl)o1` (stereo not drawn): the z-score was -0.228.
As for `c1ccc(-c2cn3cccnc3n2)cc1`, the figure is 0.000248; as for `Nc1nc(SCC(=O)NCc2ccccc2)[nH]c(=O)c1NC(=O)c1ccccc1F`, -0.457; as for `Cc1cc(F)ccc1S(=O)(=O)Nc1ccccc1C(=O)Nc1ccccc1N1CCOCC1`, -0.0929.
In the case of `COc1ccc(-c2cn(/N=C/c3ccc(Cl)cc3Cl)c(N)n2)cc1` it was 1.93.
In turn, `Cc1cc(NC(=O)c2ccc(NC(=O)C(C)C)cc2)no1` had a z-score of -0.036.
In the case of `CCOC(=O)c1ccc(NCc2ccncc2)cc1` it was -0.215; in that of `CC(C)Oc1ccc(NC(=O)Oc2ccccc2)cc1`, 0.0452.
The molecule `CC1CN(CC(O)COC(c2ccccc2)c2ccccc2)CC(C)O1` (stereo not drawn) gave a z-score of 0.833.
As for `O=C(O)CCCCCN1C(=O)CSC1=S`, the figure is 0.0586; as for `COCCNC(=O)C(=O)c1cc(C)n(-c2ccc([N+](=O)[O-])cc2)c1C`, 0.62.
In the case of `Cc1ncsc1CCOC(=O)c1ccc([N+](=O)[O-])cc1` it was -0.138; in that of `O=C(c1ccc(COc2ccccc2Cl)o1)N1N=C(C(F)F)CC1(O)C(F)F` (stereo not drawn), -0.204; in that of `NC(=O)c1nc(C2CCCCC2)nc2c1[nH]c(=O)n2-c1ccc(F)cc1`, 0.235.
As to `Cc1cc(C)cc(N2C(=O)C3NN=C(C(=O)OCc4ccccc4)C3C2=O)c1` (stereo not drawn), the z-score was -0.131.
Regarding `O=C(CNS(=O)(=O)c1ccccc1)NCc1ccccn1`, the z-score was determined as 0.407.
In the case of `Cc1ccc(S(=O)(=O)Cc2ccc(C(=O)O)o2)cc1` it was -0.0931.
As for `O=C1C2C(C(=O)N1CC1CCCO1)C1C=CC2C12CC2` (stereo not drawn), the figure is 0.614; as for `c1ccc(COc2ccc(Oc3nc(N4CCCCC4)nc(N4CCOCC4)n3)nn2)cc1`, -1.28; as for `COc1ccc(CNC(=O)CS(=O)Cc2nc(-c3ccccc3C)oc2C)cc1` (stereo not drawn), -0.364.
As for `COc1ccc(C(=O)Nc2n[nH]c(-c3ccncc3)n2)cc1`, the figure is 1.08.
`CC(C)(C)c1ccc(-c2nnc(SCCC#N)n2C2CCCC2)cc1` returned a z-score of -0.226.
In the case of `CC(NC(=O)CSc1nc(=O)cc(N)n1CCc1ccccc1)c1ccccc1` (stereo not drawn) it was 0.0738; in that of `Clc1ccc2c(NNc3ccccc3Cl)ccnc2c1`, -0.353; in that of `CS(C)(=O)=NS(=O)(=O)c1ccc(Cl)cc1`, -0.15.
`CC(=O)Nc1ccc(S(=O)(=O)n2nc(C)cc2C)cc1` showed a z-score of 0.47.
As for `Cc1ccc(C2C3=C(CC(C)(C)CC3=O)NC3=C2C(=O)CC(C)(C)C3)o1`, the figure is -0.194; as for `O=C1CC(NNc2ccccc2)C(=O)N1c1ccccc1` (stereo not drawn), -0.363; as for `Cc1ccc2c(c1)c(C)cc(=O)n2CCC(=O)O`, 0.379.
As for `CCN(CC)C(=O)c1ccc(COc2ccccc2Cl)cc1`, the figure is -0.28.
Regarding `O=C(Nc1nc2c(s1)CCCC2)c1cc(-c2ccc3c(c2)OCO3)nc2ccccc12`, the z-score was found to be 0.0309.
In the case of `COc1ccccc1N1CCN(C(=O)c2ccc(N3CCCC3=O)cc2)CC1` it was -2.25; in that of `COc1ccc(NC(=O)c2cccs2)c([N+](=O)[O-])c1`, -0.262.
In the case of `CCOc1ccc(NC(=O)C2CC(=O)N(C(C)C)C2)cc1` (stereo not drawn) it was -0.136; in that of `N#C/C(=C\c1cccc([N+](=O)[O-])c1)C(=O)NCc1cccnc1`, -0.658; in that of `N#Cc1c(NC(=O)CSc2n[nH]c(Cc3ccccc3)n2)oc(-c2ccccc2)c1-c1ccccc1`, -0.98.
As for `CCn1c(CCCOc2ccc(Cl)cc2Cl)nnc1SCC(=O)Nc1cc(F)ccc1C`, the figure is 0.256; as for `COc1ccc(Cl)cc1NC(=O)Nn1cnnc1`, 0.046.
